Data from the supplement of paper PMC10670038.
Counter-ions that a name gives are not always drawn. ± gives the standard deviation of the averaged measurements. The full ranking holds about 2,000 compounds; the median of “relative cell viability vs DMSO, compound alone” is about 1.1, and the lowest 2% start at about 0.29. Some of the results follow.

tested on: TE10; assay: relative cell viability vs DMSO, compound alone (fraction); TE10 is an esophageal squamous carcinoma line; higher = less cytotoxic; conditions: 2 µM; 48 h
Protocol: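 TE10 ESCC cells (1,000/well, 384-well plates) were treated with Selleck bioactive library compounds at 2 uM alone for 48 h. Viability was read by CellTiter-Glo and expressed relative to DMSO wells. Two technical replicates (A, B).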

Row | SMILES | relative cell viability
1 | CNC(=O)c1ccc(C)c(-n2c(C)cc(OCc3ccc(F)cc3F)c(Br)c2=O)c1 | 1.09 ± 0.052
2 | CCCCCCCCCCCC[N+](C)(C)CCOc1ccccc1 [Domiphen Bromide] | 1.1 ± 0.097
3 | Cc1ccc(-n2nc(C(C)(C)C)cc2NC(=O)Nc2ccc(OCCN3CCOCC3)c3ccccc23)cc1 [BIRB 796 (Doramapimod)] | 0.857 ± 0.021
4 | CCCOc1ccc(C(=O)OCCN(CC)CC)cc1N [Proparacaine HCl] | 0.716 ± 0.03
5 | CCN(CC)CCCCNc1ncc2cc(-c3cc(OC)cc(OC)c3)c(NC(=O)NC(C)(C)C)nc2n1 | 1.23 ± 0.029
6 | C=CS(=O)(=O)NC1CCN(C(=O)CNc2cc(I)c(Cl)cc2OC)CC1 [K-Ras(G12C) inhibitor 9] | 1.13 ± 0.012
7 | CC[C@@H](CO)NCCN[C@@H](CC)CO [Ethambutol HCl] | 1.14 ± 0.076
8 | O=C(/C=C/c1ccc(O)c(O)c1)O[C@@H]1C[C@](O)(C(=O)O)C[C@@H](O)[C@H]1O [Chlorogenic Acid] | 1.085 ± 0.0086
9 | C[C@@H]1COC(Nc2ccc3ncnc(Nc4ccc(OCc5nccs5)c(Cl)c4)c3c2)=N1 [Varlitinib] | 1.11 ± 0.045
10 | CC(=O)OCC(=O)[C@H]1CC[C@H]2[C@@H]3CCC4=CC(=O)CC[C@]4(C)[C@H]3CC[C@]12C [Deoxycorticosterone acetate] | 1.05 ± 0.028
11 | Oc1cccc(-c2nc(N3CCOCC3)c3oc4ncccc4c3n2)c1 | 0.472 ± 0.063
12 | Cn1cc(-c2ccc3c(c2)CCN3C(=O)Cc2cccc(C(F)(F)F)c2)c2c(N)ncnc21 | 0.945 ± 0.17
13 | C#C[C@]1(O)CC[C@H]2[C@@H]3CCC4=CC(=O)CC[C@@H]4[C@H]3CC[C@@]21CC [Levonorgestrel] | 1.1 ± 0.046
14 | COc1ccc(-c2ccc3c(N4CCOCC4)nc(N4C[C@@H](C)O[C@@H](C)C4)nc3n2)cc1CO | 0.43 ± 0.059
15 | OC(CN1CCN(c2cccc(Cl)c2)CC1)C(c1ccccc1)c1ccccc1 (stereo not drawn) | 1.02 ± 0.061
16 | COc1cc(OC)c(/C=C/S(=O)(=O)Cc2ccc(OC)c(NCC(=O)O)c2)c(OC)c1 | 0.661 ± 0.021
17 | CC(C)c1cc2c(N3CCN(C4=NCC(C)(C)S4)CC3)ncnc2s1 [MI-3 (Menin-MLL Inhibitor)] | 0.9593 ± 0.0084
18 | CC/C(=C(/CC)c1ccc(O)cc1)c1ccc(O)cc1 [Diethylstilbestrol] | 0.991 ± 0.13
19 | CC1=C(/C=C/C(C)=C/C=C/C(C)=C\C(=O)O)C(C)(C)CCC1 [Isotretinoin] | 0.836 ± 0.072
20 | NC(N)=Nc1nc(CSCC/C(N)=N/S(N)(=O)=O)cs1 [Famotidine] | 1.09 ± 0.029
21 | CCCCCCCc1ccc(CCc2cccc(O)c2C(=O)O)cc1 | 1.04 ± 0.044
22 | Cc1ccc([N+](=O)[O-])cc1S(=O)(=O)N(C)/N=C/c1cnc2ccc(Br)cn12 | 0.287 ± 0.012
23 | O=c1[nH]c(=O)n([C@H]2C[C@H](O)[C@@H](CO)O2)cc1Br [Bromodeoxyuridine (BrdU)] | 0.965 ± 0.12
24 | COc1cc(NC(C)CCCN)c2ncccc2c1 (stereo not drawn) [Primaquine Diphosphate] | 0.997 ± 0.0094
25 | Cc1ncc(Cl)cc1NCc1ccc(C(=O)N[C@@H](CC2CCCC2)C(=O)NC2CC2)s1 | 1.06 ± 0.039
26 | CCN(CC)CCOC(=O)C(c1ccccc1)c1ccccc1 [Adiphenine HCl] | 0.872 ± 0.12

Row | SMILES | relative cell viability
27 | OC(CCCN1CCCCC1)(c1ccccc1)c1ccccc1 [Diphenidol HCl] | 1.09 ± 0.15
28 | CCCCCCCCCCCCc1ccc(S(=O)(=O)Nc2nncs2)cc1 | 1.12 ± 0.011
29 | CCOC(=O)c1ccc(N)cc1 [Benzocaine] | 1.08 ± 0.016
30 | Nc1cc(F)ccc1NC(=O)/C=C/c1cnn(C/C=C/c2ccccc2)c1 | 1.14 ± 0.012
31 | CN(Cc1cnc2nc(N)nc(N)c2n1)c1ccc(C(=O)N[C@@H](CCC(=O)O)C(=O)O)cc1 [Methotrexate] | 0.143 ± 0.0081
32 | CCOc1ccc2nc3cc(N)ccc3c(N)c2c1 [Ethacridine lactate monohydrate] | 1.033 ± 0.0023
33 | COc1cc(C(C)=O)ccc1O [Apocynin] | 1.07 ± 0.059
34 | O=c1ccc2ccccc2o1 [Coumarin] | 1.0837 ± 0.0003
35 | Cc1nc(-c2cccnc2)sc1C(=O)Nc1ccccc1-c1cn2c(CN3CCOCC3)csc2n1 | 1.09 ± 0.057
36 | CN(C)CCCN1c2ccccc2Sc2ccc(Cl)cc21 [Chlorpromazine HCl] | 1.01 ± 0.029
37 | Nc1ccc(C(=O)Nc2cccc(-c3nc(N4CCOCC4)c4oc5ncccc5c4n3)c2)cn1 | 0.713 ± 0.072
38 | O=C1NC(=O)/C(=C/c2ccc3c(c2)OC(F)(F)O3)S1 | 1.05 ± 0.019
39 | CCOc1ccccc1OC(c1ccccc1)C1CNCCO1 (stereo not drawn) [Reboxetine mesylate] | 0.864 ± 0.057
40 | O=c1[nH]cnc2c1ncn2[C@@H]1O[C@H](CO)[C@@H](O)[C@H]1O [Inosine] | 0.945 ± 0.065
41 | COc1cc([C@@H]2c3cc4c(cc3[C@@H](O[C@@H]3O[C@@H]5CO[C@@H](c6cccs6)O[C@H]5[C@H](O)[C@H]3O)[C@H]3COC(=O)[C@H]23)OCO4)cc(OC)c1O [Teniposide] | 0.471 ± 0.0048
42 | c1cncc(CN2CCC(n3ncc4c(N5CCOCC5)nc(-c5ccc6[nH]ccc6c5)nc43)CC2)c1 | 0.766 ± 0.063
43 | COC1CCN(C(=O)c2cc(Cc3n[nH]c(=O)c4ccccc34)ccc2F)CC1 | 0.964 ± 0.077
44 | O=C1C(=O)c2ccccc2C(O)=C1C1CCC(c2ccc(Cl)cc2)CC1 (stereo not drawn) [Atovaquone] | 1.13 ± 0.076
45 | Cn1cc(-c2ccncc2)c(-c2ccc(OCc3ccc4ccccc4n3)cc2)n1 | 0.759 ± 0.038
46 | O=C(O)[C@H]1O[C@@H](Oc2cc3oc(-c4ccccc4)cc(=O)c3c(O)c2O)[C@H](O)[C@@H](O)[C@@H]1O [Baicalin] | 0.993 ± 0.032
47 | Cc1cc(C)c(S(=O)(=O)n2cc(C)cc2C)c(C)c1 | 1.189 ± 0.0094
48 | Cc1[nH]c2ccccc2c1CCNCc1ccc(/C=C/C(=O)NO)cc1 [Panobinostat (LBH589)] | 0.0672 ± 0.00084
49 | Cc1ccc2c(=O)c3cccc(CC(=O)O)c3oc2c1C [DMXAA (Vadimezan)] | 1.02 ± 0.11
50 | C=C1/C(=C\C=C2/CCC[C@]3(C)[C@@H]([C@H](C)/C=C/[C@H](C)C(C)C)CC[C@@H]23)C[C@@H](O)C[C@@H]1O [Doxercalciferol] | 0.986 ± 0.23
51 | C[C@H]1O[C@@H](Oc2c(-c3cc(O)c(O)c(O)c3)oc3cc(O)cc(O)c3c2=O)[C@@H](O)[C@@H](O)[C@@H]1O [Myricitrin] | 0.988 ± 0.19
52 | CCCCN1CCCCC1C(=O)Nc1c(C)cccc1C (stereo not drawn) [Bupivacaine HCl] | 1.1 ± 0.052

Row | SMILES | relative cell viability
53 | CCOC(=O)c1[nH]c2cc(Cl)ccc2c1C(C(=O)NC(C)(C)C)N(C=O)Cc1ccc(Cl)cc1 (stereo not drawn) | 1.189 ± 0.0039
54 | CCN1CCN(Cc2ccc(-c3cc4c(N[C@H](C)c5ccccc5)ncnc4[nH]3)cc2)CC1 | 1.308 ± 0.0033
55 | CCOC(=O)c1c(CSc2ccccc2)n(C)c2cc(Br)c(O)c(CN(C)C)c12 [Arbidol HCl] | 0.876 ± 0.064
56 | COc1cc(N2CCC(N3CCN(C)CC3)CC2)ccc1Nc1ncnc(Nc2ccccc2S(=O)(=O)C(C)C)n1 | 1.05 ± 0.073
57 | Cc1nc(Nc2ncc(C(=O)Nc3c(C)cccc3Cl)s2)cc(N2CCN(CCO)CC2)n1 [Dasatinib] | 0.98 ± 0.0031
58 | Cc1nc(Nc2ncc(C(=O)Nc3c(C)cccc3Cl)s2)cc(N2CCN(CCO)CC2)n1 [Dasatinib Monohydrate] | 0.938 ± 0.087
59 | Cc1cc(Nc2nc(N[C@@H](C)c3ccc(F)cc3)c(C#N)cc2F)n[nH]1 | 0.772 ± 0.087
60 | Cc1nc(-c2ccc(OCC(C)C)c(C#N)c2)sc1C(=O)O [Febuxostat] | 1.04 ± 0.091
61 | CC(C(=O)O)c1ccc2c(c1)CC(=O)c1ccccc1S2 (stereo not drawn) [Zaltoprofen] | 1.01 ± 0.018
62 | Oc1cc2c(cc1O)[C@@H]1c3ccc(O)c(O)c3OC[C@]1(O)C2 [Hematoxylin] | 1.11 ± 0.062
63 | COc1ccc(CC2c3cc(OC)c(OC)cc3CC[N+]2(C)CCC(=O)OCCCCCOC(=O)CC[N+]2(C)CCc3cc(OC)c(OC)cc3C2Cc2ccc(OC)c(OC)c2)cc1OC (stereo not drawn) [Atracurium Besylate] | 0.9864 ± 0.0063
64 | CC(=O)[C@H]1CC[C@H]2[C@@H]3CC=C4C[C@@H](O)CC[C@]4(C)[C@H]3CC[C@]12C [Pregnenolone] | 1.099 ± 0.007
65 | CN(C)c1ccc(C(=C2C=CC(=[N+](C)C)C=C2)c2ccc(N(C)C)cc2)cc1 [Crystal Violet] | 0.278 ± 0.006
66 | O=C(c1ccc(OCCCc2c[nH]cn2)cc1)C1CC1 [Ciproxifan] | 1.08 ± 0.011
67 | CC(C)[C@H](N)C(=O)OCC(CO)OCn1cnc2c(=O)[nH]c(N)nc21 (stereo partly drawn) [Valganciclovir HCl] | 0.85 ± 0.028
68 | CN1CCC[C@@H]1CCO[C@](C)(c1ccccc1)c1ccc(Cl)cc1 [Clemastine Fumarate] | 0.994 ± 0.011
69 | CCOc1ccc(NC(C)=O)cc1 [Phenacetin] | 0.982 ± 0.16
70 | CN1CCN(c2nc(C3=C(c4c[nH]c5ccccc45)C(=O)NC3=O)c3ccccc3n2)CC1 [Sotrastaurin] | 0.995 ± 0.13
71 | COc1cc2ncnc(Nc3ccc(F)c(Cl)c3)c2cc1OCCCN1CCOCC1 [Gefitinib (ZD1839)] | 1.19 ± 0.075
72 | CC(C(=O)O)c1ccc(C(=O)c2cccs2)cc1 (stereo not drawn) [Suprofen] | 1.13 ± 0.023
73 | CCCCC[C@H](O)/C=C/[C@H]1[C@H](O)CC(=O)[C@@H]1CCCCCCC(=O)O [Alprostadil] | 1.1 ± 0.021
74 | COC(=O)[C@]12CCC(C)(C)C[C@H]1[C@H]1C(=O)C=C3[C@@]4(C)C=C(C#N)C(=O)C(C)(C)[C@@H]4CC[C@@]3(C)[C@]1(C)CC2 [Bardoxolone Methyl] | 0.272 ± 0.0085
75 | NC1=N[C@@](c2cccc(-c3cncnc3)c2)(c2ccnc(C(F)F)c2)c2cccc(F)c21 | 1.19 ± 0.027
76 | CC[C@@H]([C@H](C)O)n1ncn(-c2ccc(N3CCN(c4ccc(OC[C@@H]5CO[C@@](Cn6cncn6)(c6ccc(F)cc6F)C5)cc4)CC3)cc2)c1=O [Posaconazole] | 1.1 ± 0.015
77 | O=C(O)c1ccccc1 [Benzoic Acid] | 1.09 ± 0.0064
78 | Cc1ccccc1N=Nc1ccc(NC(=O)c2ccnn2C)c(C)c1 | 1.112 ± 0.01
